Measurements published in PubChem BioAssay (NCI).
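TGI is the concentration that stops growth completely.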 The source holds more than one record for some entries. They are shown here; other results are not. An entry can have further records. Values that stand side by side repeat one measurement in other runs, samples, wells, individuals or studies. Brackets tell where a record comes from. Letters count within one entry.

Experiments:
Test in all cases: growth of human tumour cells (NCI), 384-well format
[1] = test system: M14 melanoma
[2] = test system: SK-OV-3 ovarian
[3] = test system: DU-145 prostate
[4] = test system: SK-MEL-28 melanoma
[5] = test system: OVCAR-5 ovarian
[6] = test system: MALME-3M melanoma
[7] = test system: SNB-75 CNS
[8] = test system: HOP-92 NSCLC
[9] = test system: T-47D breast
[10] = test system: SN12C renal
[11] = test system: NCI-H460 NSCLC

Oc1cccc(-c2nc(N3CCOCC3)c3oc4ncccc4c3n2)c1
TGI [1]: > 100 µM [sample A, 1 test] and 2.42 µM [sample B, 1 test]
TGI [2]: 395 nM [sample A, 1 test] and 6.73 µM [sample B, 1 test]
TGI [3]: 11.5 µM [sample A, 1 test] and 593 nM [sample B, 1 test]
TGI [4]: 765 nM [sample A, 1 test] and > 100 µM [sample B, 1 test]
TGI [5]: > 100 µM [sample A, 1 test] and 6.68 µM [sample B, 1 test]
TGI [6]: 330 nM [sample A, 1 test] and 10.1 µM [sample B, 1 test]
TGI [7]: 242 nM [sample A, 1 test] and 11.4 µM [sample B, 1 test]
TGI [8]: 408 nM [sample A, 1 test] and 16.5 µM [sample B, 1 test]
TGI [9]: 484 nM [sample A, 1 test] and 13.1 µM [sample B, 1 test]
TGI [10]: > 100 µM [sample A, 1 test] and 343 nM [sample B, 1 test]
TGI [11]: > 100 µM [sample A, 1 test] and 1.18 µM [sample B, 1 test]
